Source: US20230135471A1 (INTEGRATED DNA TECHNOLOGIES, published 2023)

The binders below were run against MBP tagged 53BP1 fragment (a.a. 1484-1603) (assay: BLI, fold change Ka of Ubv/Ka of CM203 [cont.]).

Binder | binding result
V70A (CM376) (designed binder) Ubv: MHHHHHHGGSGYLIFVRMLTGKMIELEVEPSDTIENIKAKIQDHEGIPLDQQRLTFQGKLLEDGRTLSDYNLLIDPKKMLALRMQ | binds
V70C (CM380) (designed binder) Ubv: MHHHHHHGGSGYLIFVRMLTGKMIELEVEPSDTIENIKAKIQDHEGIPLDQQRLTFQGKLLEDGRTLSDYNLLIDPKKMLCLRMQ | binds
V70D (CM379) (designed binder) Ubv: MHHHHHHGGSGYLIFVRMLTGKMIELEVEPSDTIENIKAKIQDHEGIPLDQQRLTFQGKLLEDGRTLSDYNLLIDPKKMLDLRMQ | no binding
V70E (CM381) (designed binder) Ubv: MHHHHHHGGSGYLIFVRMLTGKMIELEVEPSDTIENIKAKIQDHEGIPLDQQRLTFQGKLLEDGRTLSDYNLLIDPKKMLELRMQ | no binding
V70F (CM388) (designed binder) Ubv: MHHHHHHGGSGYLIFVRMLTGKMIELEVEPSDTIENIKAKIQDHEGIPLDQQRLTFQGKLLEDGRTLSDYNLLIDPKKMLFLRMQ | binds
V70G (CM383) (designed binder) Ubv: MHHHHHHGGSGYLIFVRMLTGKMIELEVEPSDTIENIKAKIQDHEGIPLDQQRLTFQGKLLEDGRTLSDYNLLIDPKKMLGLRMQ | binds
V70H (CM384) (designed binder) Ubv: MHHHHHHGGSGYLIFVRMLTGKMIELEVEPSDTIENIKAKIQDHEGIPLDQQRLTFQGKLLEDGRTLSDYNLLIDPKKMLHLRMQ | binds
V70I (CM385) (designed binder) Ubv: MHHHHHHGGSGYLIFVRMLTGKMIELEVEPSDTIENIKAKIQDHEGIPLDQQRLTFQGKLLEDGRTLSDYNLLIDPKKMLILRMQ | binds
V70K (CM386) (designed binder) Ubv: MHHHHHHGGSGYLIFVRMLTGKMIELEVEPSDTIENIKAKIQDHEGIPLDQQRLTFQGKLLEDGRTLSDYNLLIDPKKMLKLRMQ | binds
V70M (CM387) (designed binder) Ubv: MHHHHHHGGSGYLIFVRMLTGKMIELEVEPSDTIENIKAKIQDHEGIPLDQQRLTFQGKLLEDGRTLSDYNLLIDPKKMLMLRMQ | binds
V70N (CM378) (designed binder) Ubv: MHHHHHHGGSGYLIFVRMLTGKMIELEVEPSDTIENIKAKIQDHEGIPLDQQRLTFQGKLLEDGRTLSDYNLLIDPKKMLNLRMQ | binds
V70P (CM389) (designed binder) Ubv: MHHHHHHGGSGYLIFVRMLTGKMIELEVEPSDTIENIKAKIQDHEGIPLDQQRLTFQGKLLEDGRTLSDYNLLIDPKKMLPLRMQ | no binding
V70Q (CM382) (designed binder) Ubv: MHHHHHHGGSGYLIFVRMLTGKMIELEVEPSDTIENIKAKIQDHEGIPLDQQRLTFQGKLLEDGRTLSDYNLLIDPKKMLQLRMQ | binds
V70R (CM377) (designed binder) Ubv: MHHHHHHGGSGYLIFVRMLTGKMIELEVEPSDTIENIKAKIQDHEGIPLDQQRLTFQGKLLEDGRTLSDYNLLIDPKKMLRLRMQ | binds
V70S (CM390) (designed binder) Ubv: MHHHHHHGGSGYLIFVRMLTGKMIELEVEPSDTIENIKAKIQDHEGIPLDQQRLTFQGKLLEDGRTLSDYNLLIDPKKMLSLRMQ | binds
V70T (CM391) (designed binder) Ubv: MHHHHHHGGSGYLIFVRMLTGKMIELEVEPSDTIENIKAKIQDHEGIPLDQQRLTFQGKLLEDGRTLSDYNLLIDPKKMLTLRMQ | binds
V70W (CM392) (designed binder) Ubv: MHHHHHHGGSGYLIFVRMLTGKMIELEVEPSDTIENIKAKIQDHEGIPLDQQRLTFQGKLLEDGRTLSDYNLLIDPKKMLWLRMQ | binds
V70Y (CM393) (designed binder) Ubv: MHHHHHHGGSGYLIFVRMLTGKMIELEVEPSDTIENIKAKIQDHEGIPLDQQRLTFQGKLLEDGRTLSDYNLLIDPKKMLYLRMQ | binds

What follows are binders tested against MBP tagged 53BP1 fragment (a.a. 1484-1603) (assay: BLI, fold change Ka of Ubv/Ka of CM203).

Binder | binding result
L69R (CM359) (designed binder) Ubv: MHHHHHHGGSGYLIFVRMLTGKMIELEVEPSDTIENIKAKIQDHEGIPLDQQRLTFQGKLLEDGRTLSDYNLLIDPKKMRVLRMQ | binds
L69S (CM371) (designed binder) Ubv: MHHHHHHGGSGYLIFVRMLTGKMIELEVEPSDTIENIKAKIQDHEGIPLDQQRLTFQGKLLEDGRTLSDYNLLIDPKKMSVLRMQ | binds
L69T (CM372) (designed binder) Ubv: MHHHHHHGGSGYLIFVRMLTGKMIELEVEPSDTIENIKAKIQDHEGIPLDQQRLTFQGKLLEDGRTLSDYNLLIDPKKMTVLRMQ | binds
L69V (CM375) (designed binder) Ubv: MHHHHHHGGSGYLIFVRMLTGKMIELEVEPSDTIENIKAKIQDHEGIPLDQQRLTFQGKLLEDGRTLSDYNLLIDPKKMVVLRMQ | binds
L69W (CM 373) (designed binder) Ubv: MHHHHHHGGSGYLIFVRMLTGKMIELEVEPSDTIENIKAKIQDHEGIPLDQQRLTFQGKLLEDGRTLSDYNLLIDPKKMWVLRMQ | binds
L69Y (CM374) (designed binder) Ubv: MHHHHHHGGSGYLIFVRMLTGKMIELEVEPSDTIENIKAKIQDHEGIPLDQQRLTFQGKLLEDGRTLSDYNLLIDPKKMYVLRMQ | binds

These binders were tested against MBP tagged 53BP1 fragment (a.a. 1484-1603) (assay: BLI, fold change Ka of Ubv/Ka of CM429).

Binder | binding result
CM455, His-tagged (designed binder) MHHHHHHGGSGYMIFVRMLTGKMIELEVEPSDTIENIKAKIQDHEGIPLDQQRLTFQGKLLEDGRTLSDYNLTISPEKMAVLRMQ | binds
P62A (CM441) (designed binder) Ubv: MHHHHHHGGSGYMIFVRMLTGKMIELEVEPSDTIENIKAKIQDHEGIPLDQQRLTFQGKLLEDGRTLSDYNLAISPEKMAVLRMQ | binds
P62C (CM445) (designed binder) Ubv: MHHHHHHGGSGYMIFVRMLTGKMIELEVEPSDTIENIKAKIQDHEGIPLDQQRLTFQGKLLEDGRTLSDYNLCISPEKMAVLRMQ | binds
P62D (CM444) (designed binder) Ubv: MHHHHHHGGSGYMIFVRMLTGKMIELEVEPSDTIENIKAKIQDHEGIPLDQQRLTFQGKLLEDGRTLSDYNLDISPEKMAVLRMQ | binds
P62E (CM446) (designed binder) Ubv: MHHHHHHGGSGYMIFVRMLTGKMIELEVEPSDTIENIKAKIQDHEGIPLDQQRLTFQGKLLEDGRTLSDYNLEISPEKMAVLRMQ | binds
P62F (CM453) (designed binder) Ubv: MHHHHHHGGSGYMIFVRMLTGKMIELEVEPSDTIENIKAKIQDHEGIPLDQQRLTFQGKLLEDGRTLSDYNLFISPEKMAVLRMQ | binds
P62G (CM448) (designed binder) Ubv: MHHHHHHGGSGYMIFVRMLTGKMIELEVEPSDTIENIKAKIQDHEGIPLDQQRLTFQGKLLEDGRTLSDYNLGISPEKMAVLRMQ | binds
P62H (CM449) (designed binder) Ubv: MHHHHHHGGSGYMIFVRMLTGKMIELEVEPSDTIENIKAKIQDHEGIPLDQQRLTFQGKLLEDGRTLSDYNLHISPEKMAVLRMQ | binds
P62I (CM450) (designed binder) Ubv: MHHHHHHGGSGYMIFVRMLTGKMIELEVEPSDTIENIKAKIQDHEGIPLDQQRLTFQGKLLEDGRTLSDYNLIISPEKMAVLRMQ | binds
P62K (CM451) (designed binder) Ubv: MHHHHHHGGSGYMIFVRMLTGKMIELEVEPSDTIENIKAKIQDHEGIPLDQQRLTFQGKLLEDGRTLSDYNLKISPEKMAVLRMQ | binds
P62M (CM452) (designed binder) Ubv: MHHHHHHGGSGYMIFVRMLTGKMIELEVEPSDTIENIKAKIQDHEGIPLDQQRLTFQGKLLEDGRTLSDYNLMISPEKMAVLRMQ | binds
P62N (CM443) (designed binder) Ubv: MHHHHHHGGSGYMIFVRMLTGKMIELEVEPSDTIENIKAKIQDHEGIPLDQQRLTFQGKLLEDGRTLSDYNLNISPEKMAVLRMQ | binds
P62Q (CM447) (designed binder) Ubv: MHHHHHHGGSGYMIFVRMLTGKMIELEVEPSDTIENIKAKIQDHEGIPLDQQRLTFQGKLLEDGRTLSDYNLQISPEKMAVLRMQ | binds
P62R (CM442) (designed binder) Ubv: MHHHHHHGGSGYMIFVRMLTGKMIELEVEPSDTIENIKAKIQDHEGIPLDQQRLTFQGKLLEDGRTLSDYNLRISPEKMAVLRMQ | binds
P62S (CM454) (designed binder) Ubv: MHHHHHHGGSGYMIFVRMLTGKMIELEVEPSDTIENIKAKIQDHEGIPLDQQRLTFQGKLLEDGRTLSDYNLSISPEKMAVLRMQ | binds
